Screen size: about 310,000 compounds; about 14,000 (4.5%) showed an effect of 50% or more. The effect is printed as a negative number. This is one part of the list. Where a SMILES comes first, the peptide text is derived from it. The star is where a group is joined. Cbz = O=C(OCc1ccccc1)*
Target: human ether-à-go-go-related gene (hERG) potassium channel (human, UniProt Q12809)
Experiment: primary screen, population patch clamp on CHO cells stably expressing hERG
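Also: peak tail current of the secondary pulse compared with the same well before compound.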

Chain of human ether-à-go-go-related gene (hERG) potassium channel (Q12809 whole entry, looked up): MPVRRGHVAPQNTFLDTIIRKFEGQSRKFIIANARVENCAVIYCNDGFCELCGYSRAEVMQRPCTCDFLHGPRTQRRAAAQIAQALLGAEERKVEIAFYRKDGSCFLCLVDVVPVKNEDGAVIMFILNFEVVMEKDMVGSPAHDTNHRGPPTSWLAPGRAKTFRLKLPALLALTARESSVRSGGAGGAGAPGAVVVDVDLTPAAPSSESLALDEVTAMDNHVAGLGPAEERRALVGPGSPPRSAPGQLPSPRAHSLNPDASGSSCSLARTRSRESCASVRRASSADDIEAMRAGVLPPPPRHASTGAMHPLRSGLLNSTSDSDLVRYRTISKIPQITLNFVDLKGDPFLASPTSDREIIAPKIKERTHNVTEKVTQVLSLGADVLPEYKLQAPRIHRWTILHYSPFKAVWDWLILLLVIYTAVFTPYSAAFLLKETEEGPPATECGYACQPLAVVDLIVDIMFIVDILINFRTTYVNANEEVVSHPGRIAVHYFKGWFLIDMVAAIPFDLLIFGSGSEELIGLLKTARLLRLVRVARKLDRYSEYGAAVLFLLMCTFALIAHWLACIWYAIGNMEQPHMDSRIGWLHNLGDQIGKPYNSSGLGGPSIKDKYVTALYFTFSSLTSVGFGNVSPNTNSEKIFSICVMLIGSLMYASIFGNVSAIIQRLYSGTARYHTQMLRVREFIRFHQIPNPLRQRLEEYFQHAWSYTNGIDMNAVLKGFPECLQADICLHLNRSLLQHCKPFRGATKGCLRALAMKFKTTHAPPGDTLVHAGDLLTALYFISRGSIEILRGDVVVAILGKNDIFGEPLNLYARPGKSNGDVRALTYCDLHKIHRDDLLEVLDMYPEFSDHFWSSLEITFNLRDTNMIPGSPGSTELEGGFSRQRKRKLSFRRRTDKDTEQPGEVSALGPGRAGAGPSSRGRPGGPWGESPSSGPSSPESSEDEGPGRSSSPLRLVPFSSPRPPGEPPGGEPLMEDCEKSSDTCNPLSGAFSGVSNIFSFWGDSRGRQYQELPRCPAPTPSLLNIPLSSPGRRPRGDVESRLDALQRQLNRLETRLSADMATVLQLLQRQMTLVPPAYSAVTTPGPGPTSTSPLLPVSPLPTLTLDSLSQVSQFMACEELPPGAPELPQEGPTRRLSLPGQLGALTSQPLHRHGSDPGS

| Compound | hERG current change (%, negative = inhibition) at 10uM [%] |
| --- | --- |
| COc1cc([C@@H]2CC=C(C(=O)O)[C@H](c3ccc(F)cc3)N2S(=O)(=O)c2ccc(C)cc2)cc(OC)c1OC | 10.7 |
| Cc1cccc(Cn2c(Sc3nc(C)cs3)nc3c2c(=O)[nH]c(=O)n3C)c1 | -1.99 |
| CS(=O)(=O)N1CCC(C(=O)c2cccc(Cl)c2)CC1 | -0.907 |
| Cc1c(C(=O)N2CCOCC2)sc(NC(=O)Cc2ccccc2)c1C#N | -8.42 |
| COc1cccc(C2CCN(CC(=O)Nc3cc(Cl)ccc3OC)CC2O)c1 (stereo not shown) | 9.52 |
| CC(C)c1ccc(N(CC(=O)N2CCN(Cc3ccccc3)CC2)S(C)(=O)=O)cc1 | -3.3 |
| Cc1ccc(F)cc1NC(=O)COC(=O)C1CCN(c2ccc(C(F)(F)F)cn2)CC1 | 20.8 |
| O=[N+]([O-])c1ccc(-c2cnc3ccccc3n2)cc1 | 8.3 |
| CCOC(=O)CC1(CC(=O)OCC)NC(=O)c2c(C)sc(C(=O)OCC)c2N1 | 7.04 |
| CCOC(=O)c1c(S(=O)(=O)NCC(=O)Nc2cc(C)ccc2OC)c(C)n(C)c1C | 10.3 |
| Cc1c(Cl)cnc(NC(=O)CSc2nncs2)c1Cl | -9.24 |
| CC(=O)Nc1cccc(C(=O)OCc2ccc([N+](=O)[O-])cc2)c1 | -39.4 |
| CC1CC(C)CN(C(=O)Cn2nnc(-c3ccccc3)n2)C1 (stereo not shown) | -33.5 |
| CCOc1ccc(C(=O)Nc2ccc(S(=O)(=O)Nc3cc(C)on3)cc2)cc1 | -9.73 |
| Cc1ccc(S(=O)(=O)/N=C2/NC(=O)/C(=C/c3ccc(Br)o3)S2)cc1 | 24 |
| Nc1cc(=O)[nH]c(SCC(=O)Nc2cccc([N+](=O)[O-])c2)n1 | 11.3 |
| COc1ccc(NC(=S)N/N=C/c2cccn2Cc2ccc(F)cc2)cc1 | 19.8 |
| CC(=O)Nc1ccc(S(=O)(=O)N2CCSC2c2ccccc2Cl)cc1 (stereo not shown) | 9.43 |
| CC1CCc2nc(NC(=O)CN3CCOCC3)sc2C1 (stereo not shown) | -4.5 |
| Cc1ccc(C)c(NS(=O)(=O)c2ccc(-c3cnc(C4CC4)o3)cc2)c1 | 4.27 |
| Cc1ccccc1C(=O)Nc1ccc(-c2nnc(SC(C)C(=O)O)n2C)cc1 (stereo not shown) | 24.8 |
| O=C(NNc1cccc(Cl)n1)Nc1ccc(F)cc1 | 9.8 |

| Compound | hERG current change (%, negative = inhibition) at 10uM [%] |
| --- | --- |
| Cc1ccc(-c2nn(-c3ccccc3)cc2/C=N/O)cc1 | 18.6 |
| COCCN1CCC(CNCc2cn[nH]c2-c2ccc(C)c(C)c2)C1 (stereo not shown) | -3.39 |
| Cc1nc(N)sc1-c1nnc(SCC(=O)Nc2nccs2)n1C | -12.6 |
| C[C@H](NC(=O)OCc1ccccc1)C(=O)N[C@@H](Cc1c[nH]c2ccccc12)C(=O)O (Cbz-Ala-Trp-OH) | 3.65 |
| CCCCC1=CC2=CC(=O)C(C)(OC(=O)CC)C(=O)C2=CN1c1ccc(OC)cc1 (stereo not shown) | -13 |
| CCSc1nc(-c2ccco2)ccc1C#N | -0.262 |
| CN(C(=O)CN1C(=O)/C(=C/c2ccccc2F)SC1=S)C1CCS(=O)(=O)C1 (stereo not shown) | 20.3 |
| O=C(O)c1cc(N2C(=O)C3C4C=CC(C4)C3C2=O)ccc1NCc1cccnc1 (stereo not shown) | -4.64 |
| COC(=O)c1ccccc1C(=O)N1CCC(CCC(=O)NC2CC2)CC1 | 10.9 |
| COc1ccc(-n2nnnc2CNC(=O)c2ccc3c(c2)OCO3)cc1 | 13.9 |
| COc1ccc2c(C)cc(C)nc2n1 | -0.339 |
| COCc1cc(=O)[nH]c2c1c(-c1ccccc1)nn2C | 12.7 |
| Cc1cc(=O)n2nc(N3CCCC3C(=O)Nc3ccccc3C)sc2n1 (stereo not shown) | 6.27 |
| c1cnc2ccc(C(c3nnnn3C3CCCCC3)N3CCN4CCCC4C3)cc2c1 (stereo not shown) | -109 |
| Cc1ccc(OCC(=O)Nc2c(C)ccc3nsnc23)cc1 | -12.8 |
| CCC(C)N(C(=O)COC(=O)CNC(=O)c1ccccc1F)C1CCS(=O)(=O)C1 (stereo not shown) | 4.36 |
| c1ccc(-c2cn3cccnc3n2)cc1 | 5 |
| COc1ccc(S(=O)(=O)Nc2ncccc2C)c2ccccc12 | 16.7 |
| CCCCNC(C(=O)Nc1cccc(S(=O)(=O)N2CCOCC2)c1)c1ccccc1 (stereo not shown) | -50.7 |
| CCOc1ccc(N(C)S(=O)(=O)c2ccc(C)c(C(=O)NCc3ccccc3OC)c2)cc1 | -6.23 |
| COc1ccc(C(=O)CSc2nnc(-c3cccnc3)n2Cc2ccco2)cc1 | -42.9 |

Reference: publication PMC4336329 (PLoS ONE, 2015)
